From paper PMC10445733
No constants are given. Whether binding was seen depends on the method and setting. In cells and extracts the contact can be indirect. Some results given as binding are weak or reduced against the parent protein; the word gives no strength. For part of these data: Sequences can lack the tags named with a protein.

The chains behind the UniProt entries cited, without tags or fusion partners.
UniProt A5D8V6: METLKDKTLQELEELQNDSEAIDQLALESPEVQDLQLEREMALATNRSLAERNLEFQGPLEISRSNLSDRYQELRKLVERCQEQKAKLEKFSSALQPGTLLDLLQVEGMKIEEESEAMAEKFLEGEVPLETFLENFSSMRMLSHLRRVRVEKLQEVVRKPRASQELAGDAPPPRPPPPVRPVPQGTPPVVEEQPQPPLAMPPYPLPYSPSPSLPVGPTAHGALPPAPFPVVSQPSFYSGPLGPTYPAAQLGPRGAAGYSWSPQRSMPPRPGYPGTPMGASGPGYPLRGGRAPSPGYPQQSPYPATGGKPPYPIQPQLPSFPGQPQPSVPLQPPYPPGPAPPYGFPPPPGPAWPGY

T1: HA–VPS37D (UniProt Q86XT2)
T1 sequence: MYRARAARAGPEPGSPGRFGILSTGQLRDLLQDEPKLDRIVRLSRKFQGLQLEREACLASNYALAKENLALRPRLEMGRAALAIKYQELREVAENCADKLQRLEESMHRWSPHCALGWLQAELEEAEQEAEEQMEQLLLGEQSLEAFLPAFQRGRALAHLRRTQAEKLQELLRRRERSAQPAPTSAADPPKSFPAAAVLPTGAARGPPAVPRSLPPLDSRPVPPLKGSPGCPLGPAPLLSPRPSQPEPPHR


How the values were obtained:
GST–TSG101 = GST–TSG101 (UniProt Q99816); test: pull-down; 293T cells co-transfected with GST–TSG101, Myc–VPS28, HA–UMAD1 (wild type or mutant) and one HA-tagged VPS37 subunit; lysate on glutathione–Sepharose beads 3 h at 4°C (50 mM Tris-HCl pH 7.4, 150 mM NaCl, 5 mM EDTA, 5% glycerol, Triton X-100); anti-HA blot; unfused GST as control
HA–VPS37B = HA–VPS37B (UniProt Q9H9H4); test: as above
HA–VPS37C = HA–VPS37C (UniProt A5D8V6); test: as above
HA–VPS37D = target: T1, HA–VPS37D; test: as above
YFP–TSG101 = YFP–TSG101 (UniProt Q99816); test: co-IP; GFP-trap magnetic agarose on lysates of HeLa cells stably expressing a YFP-tagged bait (YFP–TSG101 in HeLa^WT or HeLa^ΔUMAD1; YFP–UMAD1 in HeLa^ΔUMAD1), >12 h at 4°C; western blot for endogenous proteins; unfused YFP as control
YFP–UMAD1 (human) = YFP–UMAD1 (human) (UniProt C9J7I0); test: as above

| binding (GST–TSG101) | binding (HA–VPS37B) | binding (HA–VPS37C) | binding (HA–VPS37D) | binding (YFP–TSG101) | binding (YFP–UMAD1 (human)) | Binder |
| --- | --- | --- | --- | --- | --- | --- |
| no binding | no binding | no binding | no binding | – | – | HA–UMAD1^M1 (V89P90F91/AAA) (protein, UniProt C9J7I0 1-137) MFHFFRKPPESKKPSVPETEADGFVLLGDTTDEQRMTARGKTSDIEANQPLETNKENSSSVTVSDPEMENKAGQTLENSSLMAELLSDAAATLAPHVLAVQGTITDLPDHLLSYDGSENLSRFWYDFTLENSVLCDS |
| – | – | – | – | binds | binds | endogenous CEP55 (protein, UniProt Q53EZ4 1-464) MSSRSTKDLIKSKWGSKPSNSKSETTLEKLKGEIAHLKTSVDEITSGKGKLTDKERHRLLEKIRVLEAEKEKNAYQLTEKDKEIQRLRDQLKARYSTTTLLEQLEETTREGERREQVLKALSEEKDVLKQQLSAATSRIAELESKTNTLRLSQTVAPNCFNSSINNIHEMEIQLKDALEKNQQWLVYDQQREVYVKGLLAKIFELEKKTETAAHSLPQQTKKPESEGYLQEEKQKCYNDLLASAKKDLEVERQTITQLSFELSEFRRKYEETQKEVHNLNQLLYSQRRADVQHLEDDRHKTEKIQKLREENDIARGKLEEEKKRSEELLSQVQFLYTSLLKQQEEQTRVALLEQQMQACTLDFENEKLDRQHVQHQLHVILKELRKARNQITQLESLKQLHEFAITEPLVTFQGETENREKVAASPKSPTAALNESLVECPKCNIQYPATEHRDLLVHVEYCSK |
